Data reported in article PMC8204860.
No constants are given. Whether binding was seen depends on the method and setting. Some results given as binding are weak or reduced against the parent protein; the word gives no strength.

By UniProt entry, the sequences of proteins in these tests, tags left out. Where a name states a change or a piece, a line headed by the entry shows the natural chain unless it says otherwise.
UniProt P46944: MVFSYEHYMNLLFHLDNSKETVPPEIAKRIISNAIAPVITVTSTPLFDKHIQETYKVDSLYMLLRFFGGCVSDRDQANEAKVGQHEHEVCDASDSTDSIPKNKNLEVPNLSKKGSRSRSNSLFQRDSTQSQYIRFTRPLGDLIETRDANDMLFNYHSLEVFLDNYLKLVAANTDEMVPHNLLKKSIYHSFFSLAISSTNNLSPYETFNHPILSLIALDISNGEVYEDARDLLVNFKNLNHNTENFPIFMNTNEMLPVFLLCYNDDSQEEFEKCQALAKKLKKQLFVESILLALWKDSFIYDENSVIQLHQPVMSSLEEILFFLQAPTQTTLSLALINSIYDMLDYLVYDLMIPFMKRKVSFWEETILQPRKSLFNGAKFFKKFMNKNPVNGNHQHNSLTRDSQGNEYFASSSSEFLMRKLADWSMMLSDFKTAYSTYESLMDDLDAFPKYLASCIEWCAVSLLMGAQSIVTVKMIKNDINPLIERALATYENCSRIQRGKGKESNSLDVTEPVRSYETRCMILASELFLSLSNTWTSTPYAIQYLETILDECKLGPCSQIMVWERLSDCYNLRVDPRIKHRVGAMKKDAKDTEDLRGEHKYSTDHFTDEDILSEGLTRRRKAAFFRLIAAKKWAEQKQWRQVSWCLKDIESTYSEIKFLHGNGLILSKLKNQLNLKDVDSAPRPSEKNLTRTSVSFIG

Target: TRAPPIII complex (Saccharomyces cerevisiae) (UniProt P46944)
Assay: cryo-EM structure; TRAPPIII (after anion exchange) mixed 1:3 with Ypt1-7xHis, overnight at 4°C with calf intestinal alkaline phosphatase, complex isolated by SEC in 10 mM Tris pH 7.5, 350 mM NaCl, 1 mM DTT; 3.7 Å reconstruction; both purified

binding: binds
Substance: Rab1/Ypt1 (Ypt1-7xHis) (from UniProt P01123 1-206)
